Assay results taken from the BET-seq Pho4 binding data (Le et al. 2018).
Some of the results follow. Values were computed here from the reads of four pooled replicates and scatter widely.

Target: T1, Pho4 (S. cerevisiae) (UniProt P07270)
T1 sequence: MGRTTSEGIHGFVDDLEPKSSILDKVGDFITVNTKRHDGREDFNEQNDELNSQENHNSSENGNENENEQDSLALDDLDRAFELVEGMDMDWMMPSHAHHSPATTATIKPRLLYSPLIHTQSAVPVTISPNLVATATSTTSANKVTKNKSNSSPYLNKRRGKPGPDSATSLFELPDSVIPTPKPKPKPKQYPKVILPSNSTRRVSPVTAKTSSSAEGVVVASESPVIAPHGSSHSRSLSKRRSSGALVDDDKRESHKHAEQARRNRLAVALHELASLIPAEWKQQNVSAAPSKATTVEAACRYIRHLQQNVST
Assay: relative binding free energy (BET-seq); higher = weaker binding
Details: reference: library average

| Sequence | relative binding free energy |
| --- | --- |
| GGGTGCACGTGGGATG | -0.13 kcal/mol |
| GGTAGCACGTGGATGT | -0.08 kcal/mol |
| ATGAACACGTGGCGTT | -0.06 kcal/mol |
| TGTGACACGTGGATGA | 0.02 kcal/mol |
| TTGAGCACGTGCGGCG | -0.05 kcal/mol |
| GTGGTCACGTGCGTGC | -0.06 kcal/mol |
| TTTTTCACGTGATCGA | 0.31 kcal/mol |
| AGTGCCACGTGGGAGG | -0.16 kcal/mol |
| GTTTTCACGTGTTGCT | 0.3 kcal/mol |
| AGAAGCACGTGTTTAT | -0.15 kcal/mol |
| TATATCACGTGATATA | 0.19 kcal/mol |
| AGTATCACGTGTTTAA | 0.16 kcal/mol |
| TGTTGCACGTGGAGCT | 0.07 kcal/mol |
| TGGGACACGTGAATTA | 0.2 kcal/mol |
| GTAATCACGTGGATGT | 0.14 kcal/mol |
| TTTTCCACGTGGGTTG | -0.03 kcal/mol |
| AGACGCACGTGGGTAG | -0.27 kcal/mol |
| TGATCCACGTGGGCGG | -0.13 kcal/mol |
| CCTTGCACGTGGGGTT | -0.23 kcal/mol |
| AGGTGCACGTGGACTT | -0.1 kcal/mol |
| TGCGTCACGTGTTTGT | -0.02 kcal/mol |
| CTAGCCACGTGTGGTG | -0.02 kcal/mol |
| GACTACACGTGTGGGG | 0.34 kcal/mol |
| CGGTGCACGTGGGATC | -0.08 kcal/mol |
| TAGGCCACGTGGAGTG | 0 kcal/mol |

| Sequence | relative binding free energy |
| --- | --- |
| ATTTTCACGTGTTGAA | 0.34 kcal/mol |
| GGGGACACGTGGAGGC | 0.03 kcal/mol |
| GATTTCACGTGTATGT | 0.28 kcal/mol |
| TTTAACACGTGTGTGC | -0.05 kcal/mol |
| AATTCCACGTGAGTGT | 0.17 kcal/mol |
| AGGTACACGTGGGGTG | -0.1 kcal/mol |
| TTTTTCACGTGTGATA | 0.35 kcal/mol |
| GATAGCACGTGTGTGC | 0.03 kcal/mol |
| ATGCTCACGTGGTTAG | 0.18 kcal/mol |
| TCAAGCACGTGTTTGT | -0.07 kcal/mol |
| TACGGCACGTGTGAGT | -0.02 kcal/mol |
| AGGTACACGTGTTTAA | -0.07 kcal/mol |
| GAATGCACGTGGGATG | 0.01 kcal/mol |
| GTTGTCACGTGCTAGA | 0.03 kcal/mol |
| TTGCTCACGTGTCTGT | 0.29 kcal/mol |
| GGAAACACGTGAGAGG | 0.21 kcal/mol |
| TTATACACGTGAATTG | 0.19 kcal/mol |
| TCTCACACGTGTTGGT | 0.1 kcal/mol |
| TGCTTCACGTGAGCTG | 0.42 kcal/mol |
| TAGGTCACGTGGGGTA | -0.1 kcal/mol |
| GCAGTCACGTGCTGGG | 0 kcal/mol |
| AAAGGCACGTGGTCTG | -0.2 kcal/mol |
| GACTTCACGTGGTGGA | 0.45 kcal/mol |
| TGTTACACGTGAAGCT | 0.33 kcal/mol |
| GTAGTCACGTGTGGAC | 0.34 kcal/mol |

| Sequence | relative binding free energy |
| --- | --- |
| TGGAGCACGTGTTGAC | 0.07 kcal/mol |
| TTATTCACGTGTATAG | 0.24 kcal/mol |
| GACGGCACGTGTGGAT | 0.1 kcal/mol |
| TGTTGCACGTGTATTC | 0.09 kcal/mol |
| GGTGTCACGTGGATTA | 0.28 kcal/mol |
| TAATGCACGTGTTTGG | -0.08 kcal/mol |
| GAGGACACGTGGGTCT | -0.04 kcal/mol |
| GTCTGCACGTGCGGGA | -0.1 kcal/mol |
| GCAGTCACGTGGCGGG | -0.01 kcal/mol |
| AAGGGCACGTGCGGGG | -0.18 kcal/mol |
| GTATGCACGTGGCGTT | 0.01 kcal/mol |
| CTGAGCACGTGAGCGG | 0.21 kcal/mol |
| CTTATCACGTGATGCG | 0.32 kcal/mol |
| GTGGACACGTGGCTGG | -0.1 kcal/mol |
| TGAGGCACGTGAGCTT | 0.21 kcal/mol |
| AGTATCACGTGTGTAG | 0.01 kcal/mol |
| TGAAACACGTGATTTA | 0.19 kcal/mol |
| ATGGCCACGTGTTTAT | -0.09 kcal/mol |
| TATGTCACGTGTGTGC | 0 kcal/mol |
| AGGAGCACGTGGAGTG | -0.21 kcal/mol |
| TTTGTCACGTGATTCT | 0.29 kcal/mol |
| TGCTGCACGTGTTTCG | 0.02 kcal/mol |
| TATGTCACGTGGTAAA | 0.08 kcal/mol |
| GGGGCCACGTGGGACT | -0.06 kcal/mol |
| TGAATCACGTGGTGTA | 0.19 kcal/mol |

| Sequence | relative binding free energy |
| --- | --- |
| TTGCGCACGTGAGATT | 0.26 kcal/mol |
| ATTATCACGTGTGGGG | 0.15 kcal/mol |
| TTTTTCACGTGGCGGG | 0.2 kcal/mol |
| TTGTGCACGTGGCTTG | -0.11 kcal/mol |
| GGAGTCACGTGGATTA | -0.03 kcal/mol |
| TGTTTCACGTGAAGTG | 0.42 kcal/mol |
| GTATGCACGTGTTTAT | -0.02 kcal/mol |
| TAAACCACGTGTGTTG | 0.04 kcal/mol |
| TGATGCACGTGTCAGT | 0.04 kcal/mol |
| GATCGCACGTGGATGG | -0.02 kcal/mol |
| AGATGCACGTGGCTGG | -0.07 kcal/mol |
| GTTAGCACGTGGCTGT | -0.06 kcal/mol |
| TTAGGCACGTGTGATC | -0.08 kcal/mol |
| GGTTTCACGTGATTGG | 0.38 kcal/mol |
| TTAGGCACGTGTAGAA | 0.06 kcal/mol |
| TGTAACACGTGAGGTG | 0.17 kcal/mol |
| AGCCGCACGTGAGGTG | 0.19 kcal/mol |
| GCGGTCACGTGTTGAT | 0.24 kcal/mol |
| ATGAGCACGTGGTGTT | -0.02 kcal/mol |
| TCGGGCACGTGGATGG | 0.02 kcal/mol |
| TTCGACACGTGGGTTC | 0.13 kcal/mol |
| AGTACCACGTGGTGTG | -0.13 kcal/mol |
| TGAGGCACGTGTTGTC | -0.08 kcal/mol |
| TAGCGCACGTGGCTGT | -0.1 kcal/mol |
| CAGGACACGTGTGGGT | 0.05 kcal/mol |

| Sequence | relative binding free energy |
| --- | --- |
| GTATTCACGTGTGAGT | 0.29 kcal/mol |
| GGCGCCACGTGAGGGT | 0.05 kcal/mol |
| TGCACCACGTGTTGGT | -0.04 kcal/mol |
| TATTGCACGTGTAAGG | 0.04 kcal/mol |
| TCTTTCACGTGTATAG | 0.22 kcal/mol |
| GTGTACACGTGGAAGT | 0.04 kcal/mol |
| TTTTACACGTGAACGG | 0.34 kcal/mol |
| GGTACCACGTGCGGGT | -0.16 kcal/mol |
| AGGTTCACGTGTTGTC | 0.21 kcal/mol |
| TCTTCCACGTGTGTGG | 0.04 kcal/mol |
| GTTGTCACGTGAGTGT | 0.33 kcal/mol |
| ATCATCACGTGAAGGT | 0.33 kcal/mol |
| GGCGTCACGTGACGTG | 0.17 kcal/mol |
| GAGGACACGTGGGTTA | -0.05 kcal/mol |
| GGAAACACGTGTAGTG | -0.02 kcal/mol |
| TTAGGCACGTGTAGCT | 0.02 kcal/mol |
| TATGGCACGTGTGTGT | -0.08 kcal/mol |
| TAAGTCACGTGGCTAG | 0.01 kcal/mol |
| TGTAGCACGTGTTATG | 0.01 kcal/mol |
| GCGTGCACGTGGTGCT | -0.17 kcal/mol |
| GTTATCACGTGTAGCT | 0.21 kcal/mol |
| TTGAGCACGTGTGAAG | 0.07 kcal/mol |
| AATTTCACGTGGAGTA | 0.17 kcal/mol |
| GATCGCACGTGTGGTG | 0.11 kcal/mol |
| CTTTACACGTGGGCTG | 0.02 kcal/mol |

| Sequence | relative binding free energy |
| --- | --- |
| TCGGGCACGTGGGAGA | -0.23 kcal/mol |
| ATTGTCACGTGAATCT | 0.24 kcal/mol |
| CTGTCCACGTGTGTGT | 0.04 kcal/mol |
| TACGTCACGTGGTAAG | 0.01 kcal/mol |
| CCTGTCACGTGTGGGT | 0.06 kcal/mol |
| TTTGTCACGTGCTTGT | 0.13 kcal/mol |
| AAGGACACGTGTTTAA | 0.13 kcal/mol |
| TTGAACACGTGGCTTG | 0.01 kcal/mol |
| CTGATCACGTGGAGTT | 0.15 kcal/mol |
| GCGTACACGTGGTGTT | -0.05 kcal/mol |
| TTGATCACGTGTTATA | 0.07 kcal/mol |
| TGAAGCACGTGGGAGG | -0.11 kcal/mol |
| CGGAACACGTGGCGGG | -0.17 kcal/mol |
| GTTCGCACGTGGTAAG | -0.01 kcal/mol |
| AAGTACACGTGTTGAT | -0.03 kcal/mol |
| TAGGTCACGTGAGTAT | 0.34 kcal/mol |
| CAAGACACGTGGTTTG | 0.1 kcal/mol |
| TTTAGCACGTGTGATG | 0.1 kcal/mol |
| CTGATCACGTGGTAGG | -0.04 kcal/mol |
| GATGACACGTGTAGTT | 0.15 kcal/mol |
| GTTGGCACGTGATGAA | 0.04 kcal/mol |
